From publication PMC5836133 come the findings set out here.

This is one part of the list. At the low end of the ranking the order means little.

This assay deals with T1, GST-NbGlk1(82-244).
T1 sequence: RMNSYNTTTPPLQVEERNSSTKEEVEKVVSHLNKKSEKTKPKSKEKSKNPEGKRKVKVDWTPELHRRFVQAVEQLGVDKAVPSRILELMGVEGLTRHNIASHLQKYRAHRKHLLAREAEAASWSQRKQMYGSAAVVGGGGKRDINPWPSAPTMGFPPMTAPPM
Description: protein-binding microarray.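 Further: rank-based score ranging −0.5 to +0.5 with E above 0.45 taken as significant binding.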 The note with it: NbGlk1 is a Golden2-like transcription factor of Nicotiana benthamiana; high values mean tight binding; most listed sequences are background and not binding sites; double strand, one strand shown.
On to AAAGGTAT, for which the binding signal stood at 0.0527 E-score.

ATTGGGCC: the binding signal is -0.325 E-score.

ACAACGCA gave a binding signal of 0.000559 E-score.

In turn, AAGATTAG had a binding signal of 0.136 E-score.

Sequence ACTCCCTG had a binding signal of -0.251 E-score.

As for AAGCCGAT, the binding signal amounted to 0.0831 E-score.

Consider AACTTTCA, for which the binding signal was -0.0373 E-score.

CAATGACA gave a binding signal of -0.0905 E-score.

For AAGGACCA, the binding signal was -0.264 E-score.

For ATTTCTAA, the binding signal came to 0.2 E-score.

AAGACGGG returned a binding signal of -0.0475 E-score.

ACTGCGGC returned a binding signal of -0.115 E-score.

In turn, ACAGTCGC registered a binding signal of -0.226 E-score.

CAATTTTC came in with a binding signal of 0.101 E-score.

Take ACACAGGT: the binding signal is -0.179 E-score.

Consider AGGTTCGC, for which the binding signal is -0.197 E-score.

Sequence AGTAGAAG registered a binding signal of -0.043 E-score.

AGAGTTCG displayed a binding signal of -0.199 E-score.

With ACTTGCAG, the binding signal was -0.0836 E-score.

As for ACAACTAA, the binding signal was -0.0213 E-score.

The sequence ACCCCGTA returned a binding signal of -0.0728 E-score.

Consider AAGAAAAG, for which the binding signal came out at 0.00831 E-score.

As for AACGGTAT, the binding signal is -0.0133 E-score.

AATTCGAT displayed a binding signal of 0.182 E-score.

AGGCAAGG yielded a binding signal of -0.216 E-score.

Regarding ATAATCCG, the binding signal turned out to be 0.337 E-score.

In turn, ATGGGCAG came in with a binding signal of -0.26 E-score.

Turning to AGCCAGGC, the binding signal was -0.24 E-score.

The sequence CACTTATA registered a binding signal of 0.0728 E-score.

Take AGAAAAAT: the binding signal was 0.252 E-score.

In the case of AACCAGAG, the binding signal is -0.107 E-score.

Sequence CACTGATA returned a binding signal of 0.208 E-score.

AAGTTCGT returned a binding signal of -0.0191 E-score.

Regarding ACCGACTC, the binding signal is -0.203 E-score.

Turning to CAGACTCA, the binding signal was -0.149 E-score.

Sequence ACATTCCA returned a binding signal of -0.0714 E-score.

Turning to CAAAGGTG, the binding signal was -0.155 E-score.

AGTGCAAC had a binding signal of -0.102 E-score.

As to ACAATAAT, the binding signal came out at 0.15 E-score.

In the case of ACGACAAT, the binding signal was determined as 0.149 E-score.

Regarding AGGCCTCA, the binding signal was -0.235 E-score.

AGCCACAC came in with a binding signal of -0.156 E-score.

The sequence AGTGCGCC yielded a binding signal of -0.138 E-score.

In the case of AGTCTAGC, the binding signal was -0.163 E-score.

As to CACCCACC, the binding signal is -0.0817 E-score.

With ACAGGCAC, the binding signal was -0.156 E-score.

On to CAAACTAA, for which the binding signal amounted to 0.139 E-score.

The sequence ATGAGCCA gave a binding signal of -0.129 E-score.

ACTCGAGC registered a binding signal of -0.18 E-score.

For the sequence ATAGACCC, the binding signal was -0.248 E-score.

Regarding ATATTGAG, the binding signal turned out to be 0.214 E-score.

AGGTGTTG came in with a binding signal of 0.0307 E-score.

In turn, CACGTTTA gave a binding signal of -0.0185 E-score.

With ATCGGTTA, the binding signal turned out to be 0.137 E-score.

In turn, CAGCCAGA had a binding signal of -0.059 E-score.

The sequence AGTACACC registered a binding signal of -0.0619 E-score.

ACCTATCT registered a binding signal of 0.0132 E-score.

In the case of ACAACTCA, the binding signal was -0.0703 E-score.

In turn, AGTCCTCC gave a binding signal of -0.342 E-score.

With ATAACACG, the binding signal worked out at 0.136 E-score.

Consider AGGGACCG, for which the binding signal is -0.245 E-score.

With ATTAATGC, the binding signal was -0.000351 E-score.

Sequence ATTCGCAG had a binding signal of 0.292 E-score.

As for ATTCGTCC, the binding signal was -0.0277 E-score.

As for ACTGGTGA, the binding signal was -0.0798 E-score.

ACATGCCA: the binding signal was -0.158 E-score.

AAACTCTG showed a binding signal of -0.0422 E-score.

ACATTGGC: the binding signal was -0.145 E-score.

Turning to AAGACATC, the binding signal was -0.031 E-score.

On to AGGCCCAG, for which the binding signal is -0.282 E-score.

AGGCAATG yielded a binding signal of -0.0934 E-score.

With CACCCAGC, the binding signal is -0.212 E-score.

The sequence ACGCCTTG showed a binding signal of -0.173 E-score.

The sequence CACTACCC showed a binding signal of -0.229 E-score.

In the case of ACTGTCCG, the binding signal was -0.0599 E-score.

Regarding ACAGTGAG, the binding signal was -0.126 E-score.

CAATCACC displayed a binding signal of 0.132 E-score.

CAGAAGCC showed a binding signal of -0.306 E-score.

As for ACAAGGGC, the binding signal was -0.212 E-score.

AACATTCG had a binding signal of -0.0753 E-score.

ATCCTCTA displayed a binding signal of 0.342 E-score.

Sequence AGGGGGCA came in with a binding signal of -0.128 E-score.

AAGCACGC: the binding signal is 0.0282 E-score.

For the sequence ATCAGAAT, the binding signal is 0.275 E-score.

As for ACTATACC, the binding signal was -0.0514 E-score.

AAAACACC gave a binding signal of -0.0449 E-score.

Turning to AGCATACG, the binding signal is -0.0933 E-score.

On to ATACACAA, for which the binding signal came out at 0.175 E-score.

ACTTTTAC registered a binding signal of 0.0084 E-score.

ACTGATAA: the binding signal stood at 0.103 E-score.

For the sequence ATTAATAA, the binding signal was 0.0603 E-score.

Take AACGCTCA: the binding signal was -0.0431 E-score.

As to ATGACGTG, the binding signal came out at 0.0205 E-score.

Sequence ATATGACC gave a binding signal of 0.00878 E-score.

With AGGGTTGG, the binding signal is -0.19 E-score.

AATCCATG came in with a binding signal of 0.381 E-score.

For the sequence ACTTATGG, the binding signal was -0.101 E-score.

Take CACAGACG: the binding signal was -0.122 E-score.

Regarding ACGGCTCG, the binding signal was -0.172 E-score.

In turn, AGGAACCG registered a binding signal of -0.245 E-score.

Take AATAGACG: the binding signal amounted to 0.0434 E-score.

CAGACTAC registered a binding signal of -0.173 E-score.

AGGGCAAA: the binding signal is -0.0141 E-score.

Turning to AGTCCCTA, the binding signal was -0.0768 E-score.

AAGAAGAG returned a binding signal of -0.0793 E-score.

In the case of CACGATCG, the binding signal was found to be 0.23 E-score.

ATTTGCCC returned a binding signal of 0.164 E-score.

Sequence ATGGAAAC displayed a binding signal of -0.0756 E-score.

With ACCTCACC, the binding signal is -0.132 E-score.

AGCCTAGC yielded a binding signal of -0.277 E-score.

For the sequence AGGCAGGA, the binding signal is -0.0368 E-score.

AAGCCGGC showed a binding signal of -0.314 E-score.

The sequence AAGACTTC had a binding signal of -0.0102 E-score.

Regarding ATTTGTAC, the binding signal is 0.228 E-score.

On to ACACCTGA, for which the binding signal is 0.0673 E-score.

Turning to AATGACAG, the binding signal is -0.145 E-score.

Regarding AGACTCGC, the binding signal is -0.16 E-score.

In turn, AAACAATC came in with a binding signal of 0.131 E-score.

Consider AACCTGGT, for which the binding signal was -0.211 E-score.

As for AGTACCCA, the binding signal is -0.0871 E-score.

Regarding AATTGGTC, the binding signal was -0.0142 E-score.

For AACACACC, the binding signal is -0.0581 E-score.

With ATCTCAAC, the binding signal stood at 0.329 E-score.

AAATACGG displayed a binding signal of 0.207 E-score.

CACACCAG showed a binding signal of -0.0346 E-score.

On to AACACAAC, for which the binding signal is -0.105 E-score.

Sequence AAGGATGA gave a binding signal of -0.0566 E-score.

ATTGGACA had a binding signal of -0.1 E-score.

Turning to AATAGGTG, the binding signal was -0.043 E-score.

On to ATCCCCTG, for which the binding signal is 0.0935 E-score.

The sequence ATACTGTA had a binding signal of 0.274 E-score.

Consider CAGAATGC, for which the binding signal was -0.097 E-score.

Consider AGGCACAC, for which the binding signal is -0.167 E-score.

AGAGCATG returned a binding signal of -0.229 E-score.

As for ATATTGAT, the binding signal is 0.248 E-score.

As to AGATCTTA, the binding signal came out at 0.347 E-score.

In the case of ACTTTCGC, the binding signal was -0.0741 E-score.

ATATGATG gave a binding signal of 0.184 E-score.

As to AAGACTGT, the binding signal was -0.0211 E-score.

Turning to ATTGGATC, the binding signal was found to be 0.158 E-score.

As to AAAACACG, the binding signal was 0.0341 E-score.

The sequence ACCACAGG came in with a binding signal of 0.0657 E-score.

ATCGCACA returned a binding signal of 0.256 E-score.

As to ACCCTTCC, the binding signal is -0.172 E-score.

Turning to AGTGCTCA, the binding signal was -0.0993 E-score.

Consider AGCGCCGA, for which the binding signal was -0.0809 E-score.

For the sequence ATCGACGG, the binding signal is -0.0567 E-score.

For the sequence CAGAGCCA, the binding signal is -0.222 E-score.

As for CACATCTA, the binding signal turned out to be 0.0487 E-score.

The sequence AGCAGTGC showed a binding signal of -0.31 E-score.

Take AGCGTGTC: the binding signal was -0.261 E-score.

The sequence AGTCGTAT yielded a binding signal of 0.118 E-score.

For AACTCTTC, the binding signal was -0.205 E-score.

In turn, CACCCTCC returned a binding signal of -0.112 E-score.

AGTGCGAG came in with a binding signal of -0.106 E-score.

In the case of AAAGGCAG, the binding signal is -0.0357 E-score.

In turn, AGTCTGAA showed a binding signal of -0.0849 E-score.

Consider AGGAAACC, for which the binding signal was -0.111 E-score.

In the case of AGTAGGAT, the binding signal turned out to be 0.128 E-score.

With AAAGCCTC, the binding signal is -0.156 E-score.

Sequence ATAGGCGC gave a binding signal of -0.0234 E-score.

The sequence ACAAGACC came in with a binding signal of -0.0852 E-score.

On to AAAAGGAA, for which the binding signal worked out at 0.134 E-score.

The sequence AATTAGCC came in with a binding signal of -0.107 E-score.

Sequence AAGTAATA displayed a binding signal of 0.122 E-score.

As for ATGTCCCC, the binding signal is -0.228 E-score.

As to AAGCGGAG, the binding signal is -0.131 E-score.

AAAGCGTG yielded a binding signal of -0.0903 E-score.

As to ACATACTG, the binding signal stood at 0.0286 E-score.

Turning to ACGCGCTG, the binding signal is -0.0674 E-score.

Take ACTAATTG: the binding signal came out at 0.0189 E-score.

As to ATATTACG, the binding signal amounted to 0.331 E-score.
